According to the supplement of paper PMC12632987:
In all, about 4,500 sequences were measured (“median log2 fold change of GCK-ALFA target abundance (FLAG IP / Myc IP barcode read proportion)”: median about 0.078, lowest 2% from about -0.6 on). The list shows a part of the results.

B1: GBRAP_160_4320 (protein)
chain: SAELKKLIKEIEEITEEAIKLIEGESPEERKTIVKVALGEILLLAIENEEISDELEDKIAEIADAAEEELDANPDLSEEEVKELLRRATEEIIKLIKESE
B2: GBRAP_160_3977 (protein)
chain: MEEVEELKKEIQEIFDQAIADIEGQSFEERLAIIRVAWGEVILLVEENPLMSDETEDKVAAIGDATVAHLEANPGLSEAEIKALIQQAEKEIKEIIEKDA
B3: GBRAP_52_6336 (protein)
chain: SRERIEEAAERIAEAVAAGNLDEAVALTRELAERESREEVREALLRTAELIAERLPDREDLAWEAIFRLADVVEEVLGDEELADELEAHMARLLVERRQA
B4: GBRAP_83_6917 (protein)
chain: NETIVVAGPADHIEELVEIAIDLHKEEGKKVVVEIIATPEQFEKVLEGVKKLAESKIDVEVVVLLEGATPEQAEKLKEEMNKILKEAGSNMKIEVLLDDE
B5: GBRAP_160_4380 (protein)
chain: SEELKELKEEVEELKEEFREEAKDLSPEEVRTLAIGVLSEIAAMVWSNEAVSEETKDKIMEIIDEAIEEIRENEDASPEEIVEIVERAMEEIIKLIEEEE
B6: GBRAP_184_5086 (protein)
chain: TVLERTIEAETVEEAIEKLKAVMAEAGAAKADLTVLVDVKGLDVEGAIALIRVAGEQKAALGIPRVTLGFTEAFTEEEIDRLLAEADAAGVRVVLPIKEE
B7: GBRAP_160_4327 (protein)
chain: SESVEELIKEIEEEFEELKKEIEGLSIEQVKVLLRGTFGEILMLLSENPDVSDEALDRVEEVEDEALATLEENPDLTLEERKELIDEAREKVIEIIKELA
B8: GBRAP_11_2830 (protein)
chain: EKEKLKRLAELAEEVAEKTEKLIKSGNPTKEELEELLELVKKLLEETKKYGDEDEIKLAEIALENVEEAIKNPENQKFYLENALAALKTLAGLYLLKLEE
B9: GBRAP_166_4880 (protein)
chain: SEEELKEKLLKELKELIKEASKKDPIEQIDLYIKIAELVKEAREQGLSEEKLLEIIKEALEETHKAGLNPKQLLGVLIDIAELSEEEIDELEEHIEELEA
B10: GBRAP_184_5158 (protein)
chain: KVLERTIEADNLEELKKKLKEIKEEAAKTKADLIVVLNLKELTKEMLETALSTLGEIKKEGLAPSITLLIENEMNDEQIDFALKLADEAGVTLVVAIPDE
B11: GBRAP_125_3149 (protein)
chain: MKEKALELAEALAKAFGFSEEEIEELRKIALASDPEQTVVAVLLAGGFEEAAELAEKVLDKLTEEEFEELIKLAEEGKDKSKEEFEKELLELLKELLKKL
B12: GBRAP_11_2715 (protein)
chain: KKEKLEKLAKEAEKLAKKVKKLIEEGPKLEELKKLKKEVAKLAKEAKKEGVDPAIVKTLEIAAEDLKEAIENPETVLEHLKNAKAALEVAAGDLLLEAEE
B13: GBRAP_39_5688 (protein)
chain: EKEEENENVVSYLEGVAAKYLYTTGISLEEAIERAKKILEKYAKENPELKELVEELIEIAEEKGEEAKLVLIGIAVEIEKGTPKEEIKEKIEKAIEYFKS
B14: GBRAP_9_7151 (protein)
chain: MEELFKKVKEILEDAFEEVKEVVPEEVKPIVDEKREEVLKRLEELAKDPNVTKEELKEEAKELVDEFEEAIKEKVDEETAKMVEAIALTAKLEIEEVAEE
B15: GBRAP_128_3299 (protein)
chain: MPEEVRRRVEELVERIRTGDPEERRAAAEELARLMREVDLETAEAIAEIIEEAIPELSKEALEILAEVLDAARPELDPEKRALAADVASEALLEAEKLEE
B16: GBRAP_160_4629 (protein)
chain: SAKLEEALKLVDEAAEFVKSMIPEVTVEEFAHGFEAEFGSVILYLEEEGLISEETADKMMKIVDDTVAYLLANPDLTDEERKALVDEAREKMKEVIKEDY
B17: GBRAP_128_3491 (protein)
chain: STAAAVARTRELLARIGEADAEEAAALTREIVALLASADPETREAIAEVIESRLPELSREKLLTIADTLEEQMPSLDPETANLVAGIQVAALNEALEKEE
B18: GBRAP_95_7015 (protein)
chain: EDDQLAADSLAEVLETAVDLGDEEAAARAARRLVALLVAHPEVRFPADLSPESAAVVLRAARETLSREDALRVAERLAASAADPEVRALARAAAAELRAE
B19: GBRAP_74_6539 (protein)
chain: SEEKIKKIEELLKEGKFLEAAELTKEIIENEDKETAIEAMNVLLDGVLANKDKLTLEEAEAVADAIVLLFEKVDDEDLSDDLWDKINAVLAAIIALEKAA
B20: GBRAP_128_3194 (protein)
chain: VSPAALAALRALAADVIATKSDAAIAAFAEAVAAALKAGQIDLDALEAVVAALGEGLDADTLDRVADALAAALADVGPEARAVALGTLGEKIYEKEEEEE
B21: GBRAP_150_3939 (protein)
chain: DLEELLLLAQGIETDLELALEPGFDKLKLAERALELAKDIAKESDEELKKLAEELIKLLEEAIKAIKAGAEEKEIQKLLEEALRKARELIEEIEKKIEEE
B22: GBRAP_184_5122 (protein)
chain: DVVHRAVEGEKAEELIAASRAVVEEAAAAGKRLHLSVFAKNMSVEEIIEVIKAMGELKARYPQVSVTVDVLDELSEEEIDKVLKAADEAGVRVVIAIPEE
B23: GBRAP_184_5111 (protein)
chain: KLLEETIKANNKEELEKKLTEVVEKAVKEKADLLVIVEIPNLTPEMAEIIMDKVAKAKEAGIKNVLVEIVSDNLSDEVIDTIDKKAKEYGLTNVVLAMKE
B24: GBRAP_26_5482 (protein)
chain: IEEEIEKLRERLKEVAKKLPDPTLAAALIASIDTLFEELEEYVEKNKNDLEAIKKALEETKKELLKDAEELGASPEAIEALKKELDEGFEEILKKAKEEL
B25: GBRAP_166_4992 (protein)
chain: SDEELLEETKKYIDEAFEEAKTASPEERREIIAEANLKVNEAIEKLKNLELAKELAVYFVERLVELLGSAEEARRLIVWPLSVPEEVIDAAEERLRELAE
B26: GBRAP_186_5396 (protein)
chain: ENKEEEHDKILKELEKENDIVIIVYLDSKDSLEKKKKIMENDVEAAEALAKETGKKVAVVFEVIDDEETLKELEKYVKELDKEAKERSGVTVKLLGKIKK
B27: GBRAP_80_6787 (protein)
chain: AEARLEAALAELAAIDPELAELLREIVELARELGVSLETLAELAEAVLELAKADLELARERLEELLELLRELREEGDSANAEAVLRVEAGEMLLEVEELE
B28: GBRAP_160_4462 (protein)
chain: MEKVKEAVEELLEDVEEELERSEDMSPEQLYLAVAITVGSELLEWSSEGLITDEQEEVLAKAIDELLALAKEKPDASLEEAKEEARRIVEEAAEKILELA
B29: GBRAP_128_3314 (protein)
chain: MDEERLEEAREIVERMKEADLEELAELTRRLAELLGTLTPEERDIVAEIFREGLKELSAEKLDVVADVLREVRPSLDPETANVVADLEVEALNEAVEKEE

What follows are binders tested against GABARAP, O95166 (assay: median log2 fold change of GCK-ALFA target abundance (FLAG IP / Myc IP barcode read proportion) (log2 ratio); each designed protein is fused to an ALFA-tag nanobody in HEK293 cells to bring the named protein to FLAG-tagged glucokinase (GCK); Myc marks an untargeted standard; higher = target protein stabilised (more abundant)). Details: target protein: 3xFLAG-MCP-GCK-ALFA reporter; HEK293 landing pad (RPLP).
Sequence of GABARAP, O95166 (O95166 whole entry, the tested form may be a part): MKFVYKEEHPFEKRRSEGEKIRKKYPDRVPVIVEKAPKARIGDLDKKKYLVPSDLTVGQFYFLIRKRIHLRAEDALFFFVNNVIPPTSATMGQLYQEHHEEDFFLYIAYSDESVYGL
Outline: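 HEK293 landing-pad cells received a recombined binder library fused to the ALFA nanobody and were induced with 2 μg mL^−1 doxycycline, then transfected with a plasmid encoding a FLAG-tagged target and a Myc-tagged standard. Lysates were collected after 48 h for anti-FLAG and anti-Myc immunoprecipitation, and the circular RNA barcodes were reverse transcribed, amplified and sequenced. Target abundance for each binder is the median log2 ratio of FLAG to Myc barcode read proportions. Barcodes had to reach a proportion of at least 10^−7 in both replicates, each binder needed at least 3 barcodes per replicate, a pseudocount of 10^−6 was applied, and the two replicates were pooled.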

| Binder | median log2 fold change |
| --- | --- |
| B1 | -0.308 |
| B2 | 0.135 |
| B3 | -0.102 |
| B4 | -0.0295 |
| B5 | -0.00161 |
| B6 | 0.0902 |
| B7 | -0.111 |
| B8 | 0.309 |
| B9 | 0.225 |
| B10 | -0.0197 |
| B11 | 0.0285 |
| B12 | 0.234 |
| B13 | 0.213 |
| B14 | 0.225 |
| B15 | 0.0976 |
| B16 | 0.0451 |
| B17 | 0.217 |
| B18 | 0.197 |
| B19 | -0.27 |
| B20 | -0.0769 |
| B21 | 0.139 |
| B22 | 0.0426 |
| B23 | 0.326 |
| B24 | 0.426 |
| B25 | 0.282 |
| B26 | -0.0896 |
| B27 | -0.358 |
| B28 | -0.501 |
| B29 | 0.162 |
